Experimental data reported in paper PMC12136788.
The other results are listed elsewhere or left out.

B1: chr12:121861850:121861851:+_ENSG00000170633_ENST00000361234|hu_hu|FALSE|FALSE (ssRNA)
RNA: GGGAGUUCUACAGUCCGACGAUCCAGCAACAAUGUGGAAACUUACAUUCAUCAAAUGUUAGCAUUUAAAAUAUACAUGACUAAUAAAGUGAACAUUCAGAGGAGCCACUGCUCAGCAUGUUCCAUGUCGGCCACUUGUGGACACAACAGAGGAUUGAGCAUCA
B2: chrX:76855959:76855960:-_ENSG00000085224_ENST00000373344|hu_mus|FALSE|FALSE (ssRNA)
RNA: GGGAGUUCUACAGUCCGACGAUCUGAAGCUAUAAAUUCAUCCAUACUAUCUUCAUCAAAAUAACCCUUAUUUUCUUUGCUGAUAUAGUCCAGUUGCAAACACCAAGGAUGAGUCCAGAUUCUACUUAACAUUUGGAAAUCUUGCAACAGAGGAUUGAGCAUCA
B3: chr14:90871172:90871173:+_ENSG00000198668_ENST00000553542|hu_mus|motif|central (ssRNA)
RNA: GGGAGUUCUACAGUCCGACGAUCACCAAUACAUGCAGACUUUGUGUGUGGACAGAGGGGCUUCUGACAUUCAGCUUCGCGGGAUACAAACAGAAUGAAGAAAUGAACUUUUUCUUUUUUUUUCUUUUUUUUGUAAGAGGUAAGCAACAGAGGAUUGAGCAUCA
B4: 46599869_46600981_1274_CDS_ENSG00000111371_ENST00000398637|human|control|control (ssRNA)
RNA: GGGAGUUCUACAGUCCGACGAUCCUUCAAGAGACACAGAGGGAGAAUUAUGCCAAAGGUAACUAUCACCACCAGAACGCGGCCAUCCACGUACCAGGCUGAAAAUGUCUCUUCCUUUCCCAUUAGAAACUUUAUGGCAGAGGGCAACAGAGGAUUGAGCAUCA
B5: chr13:94999761:94999762:-_ENSMUSG00000021687_ENSMUST00000022197|perfect_dup|motif|central (ssRNA)
RNA: GGGAGUUCUACAGUCCGACGAUCUUCUACAGGAAUGUCUACAGAAAAAUCCUGAUAGAAACAAGGUCCGACAGGAAAAUUGCGGGGAAGAGGUGGCCAAUUAUUUUUUCUACCAUGUUGACUGAGGUUUUGCAUUUCUCGUUCCAACAGAGGAUUGAGCAUCA
B6: chr4:42003652:42003653:+_ENSG00000014824_ENST00000513699|hu_mus|FALSE|FALSE (ssRNA)
RNA: GGGAGUUCUACAGUCCGACGAUCAAUAGAUAAAUGUGGGUGAAUGUCGGGAACCACAUAUGUAAAGCUUUCAAAUGUCAUUACAUUCUUCCAUCCCUGGCUGCGGCCGCGGGUCGCUGCCCGGCCGCCACCGAGCCUGCACAGCAACAGAGGAUUGAGCAUCA
B7: chr8:96751671:96751672:+_ENSMUSG00000032939_ENSMUST00000079961|mus_hu|FALSE|FALSE (ssRNA)
RNA: GGGAGUUCUACAGUCCGACGAUCCGUGCGUGUUAGGGUACGGGAACGCAGGCGCUCUCCCGCCUGCUGGAUCUCCUGUAAGUUCCGUUCCACAUGGGGAAGCUCUGAGAUGCCCUCAGUCUCAGCAGCAAGCUGUUCAGCUUGCAACAGAGGAUUGAGCAUCA
B8: chr14:76904430:76904431:+_ENSMUSG00000022010_ENSMUST00000022587|mus_mus|mus_mus_mus_hu_True|1_78 (ssRNA)
RNA: GGGAGUUCUACAGUCCGACGAUCUGCAGCCAAAAACACCCUCGUGGAAAAAAAGAGCAAGCUCCAGCAGCCUUGUAUAAGCUAGAUAAAAUCUUCUGGCUUUCCGCAGCCCAGGGAGAAACAGAAAACGGCAGCCCUCGAGUGCAACAGAGGAUUGAGCAUCA
B9: chr1:163117072:163117073:-_ENSG00000143248_ENST00000313961|hu_hu|FALSE|FALSE (ssRNA)
RNA: GGGAGUUCUACAGUCCGACGAUCGGAAAUGCAGGGUUAUUAUGGAGGAAAUAACUCACAGGAUGAUUUCAUAGCCUGGCUAAAUUACUACUUGAUUAACUCCUGAUAAAACUCAGAGCGCACAAAGCGAGGCAGAGAAUCCUUCAACAGAGGAUUGAGCAUCA
B10: chr1:60041781:60041782:+_ENSMUSG00000041040_ENSMUST00000036540|mus_hu|mus_mus_mus_hu_False|38_98 (ssRNA)
RNA: GGGAGUUCUACAGUCCGACGAUCAAGUUUACAAUAGCUCAACUUUAGCAGUAGUGGCAAAUUUUCUUUUAUUUUCCUUCACAAAAGAAAAUCUUUAGAUCUCAGUUCUAGUCUUGGACAUAGUGAAAGCUAUAAAUUCUGACUCAACAGAGGAUUGAGCAUCA
B11: chr18:34472677:34472678:+_ENSMUSG00000005871_ENSMUST00000115781|mus_mus|FALSE|FALSE (ssRNA)
RNA: GGGAGUUCUACAGUCCGACGAUCUGCACUGUGUAUCUUAUGGGCUAGGUCAGCUGGAUACUGACCAUAACUGCAAAAUUUACUUUCAUCAUCUUCAGAAUAGGAUUCAACUGAGGGUUUCAUUUGGCCUCUUUUACCAUAUCCCAACAGAGGAUUGAGCAUCA
B12: 73047273_73096420_338_5pUTR_ENSG00000163605_ENST00000295862|human|control|control (ssRNA)
RNA: GGGAGUUCUACAGUCCGACGAUCGGCUCAGGAGCUGAAGUUCUGAAAUCAUCCAUCACUUUCUCCAGUUUGAAAAUAAAAUAGCCUUUAAAUUGGGACCACUGAAUCAUUGUUUCUCCAGUCUUGGCUACAUGACAAAGAAACCAACAGAGGAUUGAGCAUCA
B13: chr1:196642912:196642913:+_ENSMUSG00000026640_ENSMUST00000027952|mus_hu|FALSE|FALSE (ssRNA)
RNA: GGGAGUUCUACAGUCCGACGAUCAGGUACACAAUAAUAUAUUAGAAUAACAAAAAACCCCACUUUAUUGGAACAUUUUAAAUACUUAAUUUUCUUACAGUUUUUAUUCCACAACACCUGUAAAAACAACAAAACCAGACAACCCAACAGAGGAUUGAGCAUCA
B14: chr15:80414081:80414082:+_ENSG00000086666_ENST00000558494|hu_hu|motif|central (ssRNA)
RNA: GGGAGUUCUACAGUCCGACGAUCUGGUAAAGAUUCAGACAGACUACUGACAGAGGUUGCAGGUGGGCUUAUUCUACCAUUACGGCGGUUCUGUCUUUGAAGAUGUUCUUUAUAGCAUACUGAACACAUGCCAUUUGUACGAGGCAACAGAGGAUUGAGCAUCA
B15: chr1:89340274:89340275:+_ENSMUSG00000048000_ENSMUST00000174671|mus_hu|FALSE|FALSE (ssRNA)
RNA: GGGAGUUCUACAGUCCGACGAUCUUUGGCACGGCGCUCAAGGAACUGCUUGGCAAACUCCUUGGCCUCAGAAGUAUCUCCUAAAUAGGCCCUGAUAUAAUCAUGGACCUCAUAAGGAGAUUCUACUUCUUUCAGGAAAGAAACCAACAGAGGAUUGAGCAUCA
B16: chr12:39763582:39763583:-_ENSG00000139116_ENST00000544797|hu_mus|hu_hu_hu_mus_False|1_78 (ssRNA)
RNA: GGGAGUUCUACAGUCCGACGAUCCUCUAGGAACUGGGCAUUCACUUUGAAUUCAGGAGCAGGAAGCCCGUUUUUAAUCGCUGAGGUCUUUUUCUCAUCAAUACUCUUGAACAGGUGUCUAACAGCACGAGAGAUGAUACCCAGCAACAGAGGAUUGAGCAUCA
B17: chr19:47151266:47151267:-_ENSG00000197380_ENST00000391916|hu_mus|FALSE|FALSE (ssRNA)
RNA: GGGAGUUCUACAGUCCGACGAUCACUCUGUAGGCAUAACCUGAGUCAGACAGUCUCUGACUUGGGGGCCCCAGGGGGUAUCCUAAGGGUCCAGGGACAUGGAGGGGGCACUUUGUGAAUGAGAAGGGGACCCUAUCUGGGCAACAACAGAGGAUUGAGCAUCA
B18: chr2:109738910:109738911:+_ENSMUSG00000027162_ENSMUST00000028583|mus_mus|FALSE|FALSE (ssRNA)
RNA: GGGAGUUCUACAGUCCGACGAUCUCUGAAAACUGCAGUAAUCUUGUAAGACUCACAAUGCUCACACCAUGCAGAAAAACAUACACACUUCCAUUCUUCCUGAAGGAAUGUUACAAAAUGCCCAUUUUUUAAAAAUAAAGGUAACAACAGAGGAUUGAGCAUCA
B19: 60974930_60976415_833_CDS_ENSMUSG00000042506_ENSMUST00000041683|mouse|control|control (ssRNA)
RNA: GGGAGUUCUACAGUCCGACGAUCUGGAAUGUGUGGGGAGCGGUGCCCUGAGUAAAACUCCUGGAAGAGAGAGGACAUCUCACAGACCAAGCAGGAGCUGGGGCUCUGCAUCUCACAGCGGUGCCUAUCCGACAGAAAGAAGUCCAACAGAGGAUUGAGCAUCA
B20: chr6:134305517:134305518:+_ENSG00000028839_ENST00000367871|hu_hu|motif|central (ssRNA)
RNA: GGGAGUUCUACAGUCCGACGAUCGUUACACACUGCCAGAACGUUAACAACCUUAAAAUCUGUAAAUAUUACCUGAAAACCGGGUUUCUGCAGACUACGGGCUAAGCGUCUGGCACCAAAUUUAGCUUCUUCUUCACUUGUUGCCAACAGAGGAUUGAGCAUCA
B21: chr9:14812383:14812384:-_ENSMUSG00000031934_ENSMUST00000164273|mus_mus|mus_mus_mus_hu_True|68_78 (ssRNA)
RNA: GGGAGUUCUACAGUCCGACGAUCAUAGCCCAGGUAGAUACACGCUAACAGUAUAAUCACAAAUGUCACCAGCCGGCAGCUAAUGUACUUGAUGAUUAAAUUAUUAGAAUUUUUCUUUGUCUUCAAGUACUGCUCCACAAUUGGCAACAGAGGAUUGAGCAUCA
B22: chr6:53387275:53387276:-_ENSG00000001084_ENST00000229416|hu_hu|FALSE|FALSE (ssRNA)
RNA: GGGAGUUCUACAGUCCGACGAUCUGUCCUUUCCCCCUUCUCUUGCAGAGUUUCAAGAACUUUCUCCCCAGACAGGACCAACCGGACUUUUUUAUUUUCAUGAUCAAAAGAUACCAACAUGUAUUCCACCUCAUCGCCCCACUUCAACAGAGGAUUGAGCAUCA

What follows are binders tested against T1, UNK ZnF1-3 (human, UniProt Q9C0B0 31-174) (assay: nsRBNS (natural sequence RNA bind-n-seq); RBNS binding buffer (assumed for nsRBNS): 25 mM Tris pH 7.5, 150 mM KCl, 3 mM MgCl2, 0.01% Triton X-100, 500 ug/ml BSA, 20 U/ml SUPERase-In, 4 C; UNK is unkempt and MSI1 is Musashi-1; names of the RNAs are library labels; protein concentration not given here; high values mean tight binding).
T1 sequence: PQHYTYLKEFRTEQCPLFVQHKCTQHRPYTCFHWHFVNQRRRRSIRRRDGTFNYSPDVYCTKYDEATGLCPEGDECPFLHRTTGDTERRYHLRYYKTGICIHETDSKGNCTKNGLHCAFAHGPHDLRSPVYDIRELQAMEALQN

Binder | binding signal
B1 | 1.24 enrichment R
B2 | 0.925 enrichment R
B3 | 1.22 enrichment R
B4 | 1.57 enrichment R
B5 | 1.75 enrichment R
B6 | 0.84 enrichment R
B7 | 0.54 enrichment R
B8 | 1.74 enrichment R
B9 | 1.76 enrichment R
B10 | 0.379 enrichment R
B11 | 0.614 enrichment R
B12 | 1.25 enrichment R
B13 | 2.21 enrichment R
B14 | 0.998 enrichment R
B15 | 0.658 enrichment R
B16 | 1.18 enrichment R
B17 | 1.16 enrichment R
B18 | 1.31 enrichment R
B19 | 0.829 enrichment R
B20 | 0.735 enrichment R
B21 | 1.19 enrichment R
B22 | 1.41 enrichment R
